Reference: patent publication US20230322822A1, “ARYL PHOSPHOROUS OXIDE COMPOUNDS AND USE THEREOF” (Chengdu Di'ao Jiuhong Pharmaceutical Factory, priority 2020, published 2023)
Blank lines part the entries; values can stand above or below the molecule they belong to.

Columns and labels:
[1] = system: Ba/F3 cells expressing EGFR-T790M/L858R; assay: Cell anti-proliferation test 1 (CTG), BaF3 EGFR-T790M/L858R; details: Mus musculus, BaF3, 72 h, read-out: EGFR-T790M/L858R IC50
Ba/F3-EML-4-ALK-WT = assay: Cell anti-proliferation test 3 (CTG), Ba/F3-EML-4-ALK-WT; format: cell-based; details: Mus musculus, 72 h, BaF3 cells, Day 3
[2] = system: Ba/F3 cells expressing EGFR-T790M/Del19; assay: Cell anti-proliferation test 1 (CTG), BaF3 EGFR-T790M/Del19; details: Mus musculus, BaF3, 72 h, read-out: EGFR-T790M/Del19 IC50
[3] = system: Ba/F3 cells expressing EGFR-C797S/T790M/L858R; assay: Cell anti-proliferation test 1 (CTG), BaF3 EGFR-C797S/T790M/L858R; details: Mus musculus, BaF3, 72 h, read-out: EGFR-C797S/T790M/L858R IC50
Ba/F3-EML-4-ALK-L1196M = assay: Cell anti-proliferation test 3 (CTG), Ba/F3-EML-4-ALK-L1196M; format: cell-based; details: Ba/F3 EML4-ALK-L1196M, 72 h, BaF3 cells, Day 3
[4] = system: Ba/F3 cells expressing EGFR-WT; assay: Cell anti-proliferation test 1 (CTG), BaF3 EGFR-WT; details: Mus musculus, BaF3, 72 h, read-out: EGFR-WT IC50
[5] = system: Ba/F3 cells expressing EGFR-C797S/T790M/Del19; assay: Cell anti-proliferation test 1 (CTG), BaF3 EGFR-C797S/T790M/Del19; details: Mus musculus, BaF3, 72 h, read-out: EGFR-C797S/T790M/Del19 IC50
EGFR-T790M/Del19 = EGFR-T790M/Del19 (Homo sapiens, UniProt P00533, T790M, form not given); assay: Enzymatic activity test (ADP-Glo) EGFR-T790M/Del19; format: biochemical; details: kinase
Protocol: (§1) • 1. […] Test information:
(§2) To assess the effect of compounds on the activity of wild-type and mutant EGFR kinases, kinase activity was tested by measuring ATP consumption in an enzymatic reaction using an ADP-Glo (Promega Corporation) kit. Samples to be tested were dissolved in DMSO and diluted in a gradient. In a microplate, an EGFR kinase, a reaction buffer (containing Tris-HCl with a pH of 7.5, MgCl2, DTT and BSA), a kinase substrate Poly(Glu4, Tyr1) and a sample (a total volume of 20 μL per well) were added per well, while a blank control (no enzyme and sample) and a negative control (no sample) were set up; incubated for 15 minutes at 23° C.; added with 5 μL of ATP, and reacted at 23° C. for 60 minutes; added with ADP-Glo Reagent, and continuously reacted for 40 minutes at room temperature to inactivate the redundant ATP; then, added with a Kinase Detection Reagent, and reacted at room temperature for 30 minutes, then the chemiluminescence intensity L of each well was measured. […] IC50 values were calculated according to the above calculation using 4Parameter Logistic Model in XLfit software. • 3.

EGFR-WT = EGFR-WT (Homo sapiens (Human), UniProt P00533); assay: Enzymatic activity test (ADP-Glo) EGFR-WT; format: biochemical; details: kinase
Protocol: as §1, §2

EGFR-C797S/T790M/L858R = EGFR-C797S/T790M/L858R (Homo sapiens (Human), UniProt P00533, C797S/L858R/T790M); assay: Enzymatic activity test (ADP-Glo) EGFR-C797S/T790M/L858R; format: biochemical; details: kinase
Protocol: as §1, §2

EGFR-Del19 = EGFR-Del19 (Homo sapiens, UniProt P00533); assay: Enzymatic activity test (ADP-Glo) EGFR-Del19; format: biochemical; details: kinase
Protocol: as §1, §2

[6] = system: BaF3 EGFR-DTC(C797S/T790M/Del19) cells; assay: In-vivo pharmacodynamic study, transplanted tumor model of BaF3 EGFR-DTC(C797S/T790M/Del19) cells in nude mice; set-up: species or system BALB/c nude mice; details: for Effect on tumor growth (in words): compound 2 and Brigatinib 25 and 50 mg/kg, compound 33 25 mg/kg
Protocol: The models used in this test were subcutaneous transplanted tumor models of engineered BaF3 EGFR-DTC(C797S/T790M/Del19) cells in BALB/c nude mice. The engineered BaF3 cells were cultured in vitro suspension. […] Passages were treated twice a week. When the cell number reached requirement, the cells were collected, counted and inoculated. 0.2 mL (10^6) cells (added with matrigel, 1:1 by volume) were subcutaneously inoculated in the right back of each mouse, and divided into groups for administration with 6 mice per group when the mean tumor volume reached 109 mm^3.
Administration mode and frequency: Oral gavage was carried out with an administration volume of 10 mL/kg, and the model group was administered with the same volume of solvent. The administration was once per day and continuously carried out for 14 days.
General conditions such as spirit, activity, food intake and the like of the mice were observed every day, and the weight was measured thrice every week; the short diameter (a) and the long diameter (b) of each mouse tumor were measured thrice a week with a vernier caliper, and the tumor volume was calculated according to the formula (a^2×b)/2. The Relative Tumor Volume (RTV) was calculated from the measured tumor volume, wherein RTV=Vt/V0, wherein V0 was the tumor volume at random grouping (i.e., d0) and Vt was the tumor volume at each measurement (i.e., dn). The relative tumor proliferation rate of the evaluation index of the anti-tumor activity was calculated according to the following formula: relative tumor proliferation rate T/C (%): […]
(Note: TRTV: treatment group RTV; CRTV: model control group RTV. According to the therapeutic effect evaluation standard in the Technical Guidelines for Non-clinical Research of Cytotoxic Anti-tumor Drugs Issued by National Medical Products Administration of China, the value (T/C %≤40%) was effective).

[7] = Single administration toxicity test, orally intragastric administration to SD rats; format: in vivo; details: for Mortality Female: 5 female rats; for Mortality Female / Mortality Male / Mortality/total number of animals: day 15; for Mortality Male: 5 male rats
Protocol: 8-week-old SD rats, 10 per group, male and female half, were purchased from Beijing SiPeiFu. The rats were tested after 3 days of acclimatization in this laboratory. The oral administration was performed by intragastric administration with an administration volume of 10 mL/kg. The rats were fasted and not forbidden to drink water for 17 hours before administration. The rats in the control group were given an equal volume of solvent via oral gavage. The feeding was resumed about 2 hours after the end of the administration.
Observations were made twice daily after the administration. The day of first administration was defined as day 1 of the test. The test was carried out for 14 consecutive days, and ended in day 15.

[8] = 25 mg/kg oral gavage once per day
[9] = 25 mg/kg oral gavage once per day, Day 3
[10] = 25 mg/kg oral gavage once per day, Day 5
[11] = 25 mg/kg oral gavage once per day, Day 7
[12] = 25 mg/kg oral gavage once per day, Day 10
[13] = 25 mg/kg oral gavage once per day, Day 12
[14] = 50 mg/kg oral gavage once per day

EGFR-C797S/T790M/L858R, sequence (P00533 25-1210 T790M/C797S/L858R): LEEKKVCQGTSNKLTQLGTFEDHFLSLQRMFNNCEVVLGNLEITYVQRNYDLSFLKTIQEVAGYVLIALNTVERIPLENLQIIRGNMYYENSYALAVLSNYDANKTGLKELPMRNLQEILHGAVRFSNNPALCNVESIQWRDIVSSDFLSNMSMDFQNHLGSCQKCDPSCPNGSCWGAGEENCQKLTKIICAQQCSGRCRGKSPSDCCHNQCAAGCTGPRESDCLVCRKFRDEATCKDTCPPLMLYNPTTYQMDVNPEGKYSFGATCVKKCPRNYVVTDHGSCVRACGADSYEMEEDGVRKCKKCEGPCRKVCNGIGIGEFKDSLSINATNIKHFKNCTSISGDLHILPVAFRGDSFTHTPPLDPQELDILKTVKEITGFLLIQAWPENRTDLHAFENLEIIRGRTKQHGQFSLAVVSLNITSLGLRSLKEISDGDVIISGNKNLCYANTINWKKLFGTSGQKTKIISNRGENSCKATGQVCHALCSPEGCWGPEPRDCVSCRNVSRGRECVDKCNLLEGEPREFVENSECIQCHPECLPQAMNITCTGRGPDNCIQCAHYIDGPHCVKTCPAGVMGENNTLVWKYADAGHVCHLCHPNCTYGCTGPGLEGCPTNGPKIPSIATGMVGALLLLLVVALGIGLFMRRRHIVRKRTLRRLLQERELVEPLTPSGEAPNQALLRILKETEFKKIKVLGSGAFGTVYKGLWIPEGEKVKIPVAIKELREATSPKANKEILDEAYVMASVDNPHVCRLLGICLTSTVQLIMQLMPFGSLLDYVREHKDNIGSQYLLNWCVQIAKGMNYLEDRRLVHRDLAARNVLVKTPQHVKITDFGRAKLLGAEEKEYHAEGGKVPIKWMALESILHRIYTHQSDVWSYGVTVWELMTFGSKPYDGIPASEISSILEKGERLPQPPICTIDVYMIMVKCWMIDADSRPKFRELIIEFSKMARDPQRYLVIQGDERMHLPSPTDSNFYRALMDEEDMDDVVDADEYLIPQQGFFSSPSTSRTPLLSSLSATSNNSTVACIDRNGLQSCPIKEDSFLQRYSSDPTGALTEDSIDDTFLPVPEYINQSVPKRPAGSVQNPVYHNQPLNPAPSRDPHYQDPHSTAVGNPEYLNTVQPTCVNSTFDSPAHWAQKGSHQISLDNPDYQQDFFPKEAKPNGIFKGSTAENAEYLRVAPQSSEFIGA
EGFR-WT, sequence (P00533 25-1210): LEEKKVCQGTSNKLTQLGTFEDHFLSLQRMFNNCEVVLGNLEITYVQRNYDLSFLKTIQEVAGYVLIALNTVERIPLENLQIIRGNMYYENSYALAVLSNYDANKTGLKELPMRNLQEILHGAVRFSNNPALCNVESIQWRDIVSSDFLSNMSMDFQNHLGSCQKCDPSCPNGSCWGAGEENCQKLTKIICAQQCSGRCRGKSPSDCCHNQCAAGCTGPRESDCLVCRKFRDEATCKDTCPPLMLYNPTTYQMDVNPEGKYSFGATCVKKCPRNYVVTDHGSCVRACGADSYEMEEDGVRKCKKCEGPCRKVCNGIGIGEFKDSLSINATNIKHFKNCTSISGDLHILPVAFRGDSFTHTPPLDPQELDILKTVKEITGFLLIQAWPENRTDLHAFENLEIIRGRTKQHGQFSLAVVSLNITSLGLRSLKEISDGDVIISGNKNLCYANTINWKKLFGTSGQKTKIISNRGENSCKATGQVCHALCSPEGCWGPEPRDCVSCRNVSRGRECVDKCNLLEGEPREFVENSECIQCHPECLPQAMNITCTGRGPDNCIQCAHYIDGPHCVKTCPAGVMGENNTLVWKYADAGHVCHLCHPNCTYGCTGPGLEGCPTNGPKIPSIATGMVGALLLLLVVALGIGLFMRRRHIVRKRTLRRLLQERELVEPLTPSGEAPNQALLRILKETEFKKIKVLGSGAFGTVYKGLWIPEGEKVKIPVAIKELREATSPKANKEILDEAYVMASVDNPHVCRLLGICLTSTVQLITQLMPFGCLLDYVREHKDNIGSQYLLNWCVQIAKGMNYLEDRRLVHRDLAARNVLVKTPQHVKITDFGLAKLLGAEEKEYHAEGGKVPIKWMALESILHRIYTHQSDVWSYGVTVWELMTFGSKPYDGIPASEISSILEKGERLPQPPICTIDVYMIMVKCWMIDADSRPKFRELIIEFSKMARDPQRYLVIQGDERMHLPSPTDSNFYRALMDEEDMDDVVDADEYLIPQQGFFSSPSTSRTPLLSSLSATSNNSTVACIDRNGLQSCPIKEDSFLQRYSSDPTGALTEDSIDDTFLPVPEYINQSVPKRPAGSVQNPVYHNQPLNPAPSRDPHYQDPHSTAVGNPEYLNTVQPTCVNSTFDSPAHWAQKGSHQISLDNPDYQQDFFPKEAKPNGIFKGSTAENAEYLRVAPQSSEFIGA
EGFR-Del19, sequence (P00533 25-1210 limits assumed): as the sequence (P00533 25-1210) above

Compound: COc1cc(N2CCN(C)CC2)c(C)cc1Nc1ncc(Br)c(Nc2ccc(C)cc2P(C)(C)=O)n1 [Compound 29]
IC50 [1]: 105 nM
IC50 (Ba/F3-EML-4-ALK-WT): 8.7 nM
IC50 [2]: 40.5 nM
IC50 [3]: 125 nM
IC50 (Ba/F3-EML-4-ALK-L1196M): 15.2 nM
IC50 [4]: 1490 nM
IC50 [5]: 32.2 nM

Compound: COc1cc(N2CCC(N3CCN(C)CC3)CC2)c(C)cc1Nc1ncc(Br)c(Nc2cc(C)ccc2P(C)(C)=O)n1 [Compound 9]
IC50 [2]: 24.1 nM
IC50 (EGFR-T790M/Del19): 11 nM
IC50 [3]: 186 nM
IC50 (EGFR-WT): 162 nM
IC50 (EGFR-C797S/T790M/L858R): 39.9 nM
IC50 [4]: 1890 nM
IC50 [5]: 34.2 nM
IC50 (EGFR-Del19): 46.1 nM

Compound: COc1cc(N2CCC(N3CCN(C)CC3)CC2)c(C)cc1Nc1ncc(Br)c(Nc2ccc(Cl)cc2P(C)(C)=O)n1 [Compound 33]
IC50 [1]: 24.7 nM
IC50 (Ba/F3-EML-4-ALK-WT): 10.7 nM
IC50 [2]: 25.8 nM
IC50 [3]: 90.7 nM
IC50 (Ba/F3-EML-4-ALK-L1196M): 16.2 nM
IC50 [4]: 966 nM
IC50 [5]: 22.9 nM
Tumor volume Day 0 [6, 8]: 109 mm^3
Relative tumor proliferation rate T/C Day 3 [6, 9]: 52.56%
Tumor volume Day 3 [6, 9]: 75 mm^3
Relative tumor proliferation rate T/C Day 5 [6, 10]: 29.21%
Tumor volume Day 5 [6, 10]: 52 mm^3
Relative tumor proliferation rate T/C Day 7 [6, 11]: 10.32%
Tumor volume Day 7 [6, 11]: 39 mm^3
Relative tumor proliferation rate T/C Day 10 [6, 12]: 4.84%
Tumor volume Day 10 [6, 12]: 27 mm^3
Relative tumor proliferation rate T/C Day 12 [6, 13]: 2.56%
Tumor volume Day 12 [6, 13]: 21 mm^3
Tumor volume Day 14 [6, 8]: 16 mm^3
Effect on tumor growth (in words) [6]: obviously inhibit the tumor growth

Compound: COc1cc(N2CCC(N3CCN(C)CC3)CC2)ccc1Nc1ncc(Cl)c(Nc2ccccc2P(C)(C)=O)n1 [Brigatinib, reference compound]
Mortality Female ([7]; 25 mg/kg single dose): 0
Mortality Male ([7]; 25 mg/kg single dose): 0
Mortality/total number of animals ([7]; 25 mg/kg single dose): 0/10
Mortality Female ([7]; 75 mg/kg single dose): 1
Mortality Male ([7]; 75 mg/kg single dose): 1
Mortality/total number of animals ([7]; 75 mg/kg single dose): 2/10
Mortality Female ([7]; 100 mg/kg single dose): 3
Mortality Male ([7]; 100 mg/kg single dose): 1
Mortality/total number of animals ([7]; 100 mg/kg single dose): 4/10
Mortality Female ([7]; 125 mg/kg single dose): 4
Mortality Male ([7]; 125 mg/kg single dose): 2
Mortality/total number of animals ([7]; 125 mg/kg single dose): 6/10
Mortality Female ([7]; 150 mg/kg single dose): 5
Mortality Male ([7]; 150 mg/kg single dose): 4
Mortality/total number of animals ([7]; 150 mg/kg single dose): 9/10
Mortality Female ([7]; 200 mg/kg single dose): 5
Mortality Male ([7]; 200 mg/kg single dose): 5
Mortality/total number of animals ([7]; 200 mg/kg single dose): 10/10
MTD at 14 days ([7]; both sexes, Sprague-Dawley, rat, in vivo, po, SD rats, single orally intragastric administration, read-out: Maximum Tolerated Dose (MTD)): < 75 mg/kg
Tumor volume Day 0 [6, 8]: 109 mm^3
Tumor volume Day 3 [6, 9]: 139 mm^3
Tumor volume Day 5 [6, 10]: 152 mm^3
Tumor volume Day 7 [6, 11]: 276 mm^3
Tumor volume Day 10 [6, 12]: 476 mm^3
Tumor volume Day 12 [6, 13]: 755 mm^3
Tumor volume Day 14 [6, 8]: 1046 mm^3
Tumor volume Day 0 [6, 14]: 109 mm^3
Tumor volume Day 3 ([6]; 50 mg/kg oral gavage once per day, Day 3): 115 mm^3
Tumor volume Day 5 ([6]; 50 mg/kg oral gavage once per day, Day 5): 121 mm^3
Tumor volume Day 7 ([6]; 50 mg/kg oral gavage once per day, Day 7): 146 mm^3
Tumor volume Day 10 ([6]; 50 mg/kg oral gavage once per day, Day 10): 220 mm^3
Tumor volume Day 12 ([6]; 50 mg/kg oral gavage once per day, Day 12): 378 mm^3
Tumor volume Day 14 [6, 14]: 509 mm^3
Effect on tumor growth (in words) [6]: did not significantly inhibit the tumor growth

Compound: Cc1ccc(Nc2nc(Nc3cc(C)c(N4CCC(N5CCN(C)CC5)CC4)cc3OC(F)F)ncc2Br)c(P(C)(C)=O)c1 [Compound 24]
IC50 [2]: 23.5 nM
IC50 [3]: 54 nM
IC50 (EGFR-C797S/T790M/L858R): 54 nM
IC50 [4]: 887 nM
IC50 [5]: 24.5 nM

The remaining lines, values ahead:

IC50 [1]: 18.9 nM
IC50 [2]: 41 nM
IC50 [3]: 96.8 nM
IC50 [4]: 4770 nM
IC50 [5]: 87 nM
Compound: CCc1cc(Nc2ncc(Br)c(Nc3ccc(C(C)C)cc3P(C)(C)=O)n2)c(OC)cc1N1CCC(N2CCN(C)CC2)CC1 [Compound 37]

IC50 [1]: 46.1 nM
IC50 (Ba/F3-EML-4-ALK-WT): 18.2 nM
IC50 [2]: 23.4 nM
IC50 [3]: 127 nM
IC50 (Ba/F3-EML-4-ALK-L1196M): 14.7 nM
IC50 [4]: 2920 nM
IC50 [5]: 19.4 nM
Compound: COc1cc(N2CCC(N3CCN(C)CC3)CC2)c(Cl)cc1Nc1ncc(Br)c(Nc2ccc(F)cc2P(C)(C)=O)n1 [Compound 35]

IC50 [1]: 32.1 nM
IC50 [2]: 48.5 nM
IC50 [3]: 95.9 nM
IC50 [4]: 2600 nM
IC50 [5]: 45.1 nM
Compound: COc1cc(N2CCC(N3CCN(C)CC3)CC2)c(C)cc1Nc1ncc(Br)c(Nc2ccc(C(C)C)cc2P(C)(C)=O)n1 [Compound 36]
